Data on six compounds can be found in PubChem BioAssay (NCI).

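48-hour exposure; five concentrations; linearly interpolated endpoints. Abbreviation: GI50, concentration required for 50% inhibition of growth. At the TGI there is no net growth.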 Numbered stars: 1 amine (or outer) side, 2 acyl side, 3 side chain; on linkers, the order of the positions; unused ones are H or OH. Square brackets hold non-standard residues; d marks the D form. Peptide text beside a SMILES is read from it. * marks the point of attachment. X9 = C/C=C/CC(C)C(O)[C@H](N[*:1])C(=O)[*:2]; Decanoyl = CCCCCCCCCC(=O)*; Leu(ol) = CC(C)C[C@H](N)CO; Iva = CC[C@](C)(N)C(=O)O; Aib = CC(C)(N)C(=O)O Where only a bound is given, the exact number is not on record here.

The test system of this experiment is NCI-H322M lung. In words: NCI tumour cell line growth inhibition, 48 h.
Turning to `COc1ccc([C@H]2[C@H](O)C(=O)N2c2cc(OC)c(OC)c(OC)c2)cc1O`, the GI50 is 0.0372 µM and the TGI is more than 100 µM.

`CN1CCN(Cc2ccc(NC(=O)c3cncc(C#Cc4cnc5ccc(N6CCSCC6)nn45)c3)cc2C(F)(F)F)CC1`: the GI50 is 0.241 µM and the TGI stood at 0.748 µM.

Consider `Cc1cc(C)cc(NC2=C(Cl)C(=O)c3nc(C)ccc3C2=O)c1`, for which the GI50 is 13.1 µM and the TGI was found to be 27.7 µM.

Take `Clc1cccc(/C=N/Nc2nc(N/N=C/c3cccc(Cl)c3)nc(N3CCOCC3)n2)c1`: the GI50 is 11.3 µM and the TGI is more than 100 µM.

`C/C=C/CC(C)C(O)[C@H](NC(=O)[C@@H]1CCCN1C(=O)C(C)(C)NC(=O)CCCCCCCCC)C(=O)N[C@@](C)(CC)C(=O)N[C@@H](CCC(N)=O)C(=O)N[C@H](CCC(N)=O)C(=O)NC(C)(C)C(=O)NC(C)(C)C(=O)N[C@@H](CCC(N)=O)C(=O)N[C@H](CC(C)C)C(=O)N[C@H](CO)CC(C)C` (stereo partly drawn) (Decanoyl-[Aib]P[X9][Iva]Q[dQ][Aib][Aib]Q[dL][Leu(ol)]): the GI50 is 1.97 µM and the TGI turned out to be 4.64 µM.

Regarding `O=C(N/N=C/c1ccc[nH]1)c1[nH]c2ccc(Br)cc2c1-c1ccccc1`, the GI50 was 0.921 µM and the TGI came to 13.3 µM.
